Results published in PubChem BioAssay AID686971 (National Center for Advancing Translational Sciences (NCATS), 2013).
About 7,500 (2.1%) of roughly 360,000 compounds were called active. The shares of active, inactive and inconclusive entries below differ from those in the screen. Calls follow the shape of the dose curve; as a rule, active = well fitted cell-killing curve with a large enough effect; inconclusive = small, poorly fitted or top-dose-only effect, or effect the other way, or another doubt; inactive = no such curve, though single readings can be large or run the other way. No potency is given beside an inconclusive call; the fits are too rough.

Test: qHTS for induction of synthetic lethality in tumor cells producing 2HG: qHTS for the HT-1080-IDH1KD cell line;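 as to activity, negative = toxicity: 0% = DMSO wells and -100% = cell-free medium wells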
Conditions: HT-1080 IDH1 knockdown viability, ATP luminescence, 48 h; activity, negative = toxicity: at 46.1 µM (top of the series) unless noted
Summary of the method: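 Knockdown cells (IDH1KD HT-1080) received compounds 2 h after plating at 750 cells/well and were kept 48 h at 37 °C in 5% FBS RPMI. A CellTiter-Glo luminescence read gave % activity for curve fitting.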
Potency is read from the fitted curve at half-maximal effect; tags tell the direction and shape of the fitted curve.

Structure (SMILES)	Potency	activity, negative = toxicity
Cc1nn(Cc2ccccc2Cl)c(C)c1C(=O)NC1CCCc2ccccc21 (stereo not given)	inactive	–
COC(=O)C1=C(c2ccc(F)cc2OCc2ccccc2)C[C@@H]2CC[C@H]1N2C(=O)NCc1ccc(C(F)(F)F)cc1	inactive	–
Cc1ccc(-n2c(O)c(/C=N/NC(=O)c3ccncc3)c(=O)[nH]c2=O)cc1C	–	inconclusive: -34.6% [cytotoxic]
C#CC1(O)CCC2C3CCC4=CC(=O)CCC4=C3C=CC21C (stereo not given)	inconclusive [cytotoxic, single point]	–
O=C1NCN(c2ccccc2)C12CCN(C(c1cc3ccccc3o1)c1nnnn1C1CCCCC1)CC2 (stereo not given)	inconclusive [cytotoxic, single point]	–
O=C(NN=Cc1ccc(N(CCCl)CCCl)cc1)C(=O)c1c[nH]c2ccccc12	inconclusive [cytotoxic, partial curve]	–
O=C(COc1ccc(Cl)cc1)N(c1ccc(Cl)cc1)C1CN2CCC1CC2 (stereo not given)	active: 14.6 µM	–
CCOC(=O)c1cc2ccccc2n1C1CCN(Cc2ccccc2)CC1	inconclusive [cytotoxic, single point]	–
O=C(CN1CCc2ccccc2C1)Nc1ccccc1N1CCCCCC1	inconclusive [cytotoxic, single point]	–
Cc1ccc(N=C(/N=C(\N)N[N+](=O)[O-])Nc2ccc(C)cc2)cc1	inactive	–
CN(C)CC(C(=O)Cc1ccccc1)c1ccccc1 (stereo not given)	active: 8.2 µM	–
Oc1ccc2c3c1O[C@H]1c4[nH]c5ccccc5c4C[C@@]4(O)[C@@H](C2)N(CC2CC2)CC[C@]314	inconclusive [cytotoxic, single point]	–
Cc1ccccc1NC(=NCCCN1CC1)Nc1ccccc1C	inconclusive [cytotoxic, partial curve]	–
CC1(C)OC(c2ccccc2)=C/C(=C/C=C2C(=O)NC(=O)NC2=O)O1	inactive	–
Cn1cc[n+](C)c1P(=S)(c1ccccc1)c1ccccc1	inactive	–
Cc1sc2c(c1C)C(c1ccc(C(C)(C)C)cc1)=NCC(=O)N2CC(=O)Nc1nccs1	inconclusive [cytotoxic, single point]	–
COC(=O)C1=C(c2cccc(OCc3ccccc3)c2)C[C@@H]2CC[C@H]1N2C(=O)NCCN1CCOCC1	inconclusive [cytotoxic, single point]	–
CN1C(=O)C(=Cc2ccccc2OCc2ccc(Cl)cc2)C(=O)N(C)C1=O	inconclusive [cytotoxic, single point]	–
N#CC1c2ccccc2C=CN1C(=O)c1ccc(N(CCCl)CCCl)cc1 (stereo not given)	inactive	–
CN1C(=O)CN=C(c2ccc(Cl)cc2)c2cc(Cl)ccc21	inconclusive [cytotoxic, single point]	–
COc1ccc(NC(=S)Nc2ncccc2C)c(OC)c1	active: 10 µM	–
COc1cc2cc(C(=O)N3CC(COS(C)(=O)=O)c4ccc(O)cc43)[nH]c2c(OC)c1OC (stereo not given)	active: 0.13 µM	–
COC(=O)C1=C(c2ccccc2OCc2ccccc2)C[C@@H]2CC[C@H]1N2C(=O)NCc1ccc(F)cc1	inconclusive [cytotoxic, single point]	–

Structure (SMILES)	Potency	activity, negative = toxicity
NC(Cc1ccccc1)c1csc(Nc2ccccn2)n1 (stereo not given)	inconclusive [cytotoxic, single point]	–
CCCCNCc1cc(Cl)c(OCCC)c(OCC)c1	inconclusive [cytotoxic, partial curve, poor fit]	–
COC(=O)C1=C(c2ccccc2OCc2ccccc2)C[C@@H]2CC[C@H]1N2C(=O)NCc1ccc(C(F)(F)F)cc1	inactive	–
CCOC(=O)C1(CCc2ccccc2)CCN(Cc2ccc3c(c2)OCCO3)CC1	active: 16.4 µM	–
OC(c1ccccc1)(c1ccc(Cl)cc1)C1CN2CCC1CC2 (stereo not given)	active: 16.4 µM	–
Clc1cccc(N2Cc3ccccc3-n3nncc3C2)c1	inconclusive [cytotoxic, single point]	–
CCOC(=O)c1c(C=O)c2ccccc2n1Cc1ccccc1F	inconclusive [cytotoxic, single point]	–
CC1=CC(=Cc2sc3ccccc3[n+]2C)C=C(C)O1	active: 10.3 µM	–
C[n+]1c(-c2ccccc2)c2cc(N)ccc2c2ccc(N)cc21	active: 1.3 µM	–
O=c1c2ccccc2[se]n1-c1ccccc1	inconclusive [cytotoxic, single point]	–
CCc1nnc(NS(=O)(=O)c2ccc(N=Cc3c(O)n(-c4ccc(Cl)cc4)c(=O)[nH]c3=O)cc2)s1	inconclusive [rising, single point]	–
Cc1ccccc1-n1c(C)nc2sccc2c1=O	inactive	–
O=C1Nc2ccccc2/C1=C/c1nc2ccccc2c(=O)n1-c1ccc(O)cc1	inconclusive [cytotoxic, partial curve]	–
CCOC(=O)C1CCN(Cc2ccc(Cl)nc2)CC1	inactive	–
Cc1nc2cc(OC(=O)N(C)Cc3cccc(-c4ccncc4)c3)ccc2s1	inconclusive [cytotoxic, partial curve]	–
CC(=O)C1CCC2C3CCC4CC(O)CCC4(C)C3CCC12C (stereo not given)	inconclusive [cytotoxic, single point]	–
NCCc1c(Cc2ccccc2)[nH]c2ccccc12	inactive	–
COc1ccc(-n2nnnc2C(c2cccs2)N2CCC(n3c(=O)[nH]c4ccccc43)CC2)cc1 (stereo not given)	inconclusive [cytotoxic, single point]	–
CC1CC(C)(O)CC(C(O)CC2CC(=O)NC(=O)C2)C1=O (stereo not given)	active: 0.164 µM	–
CCCN1CCCc2cc(CN)ccc21	inconclusive [cytotoxic, single point]	–
Cc1cccc(C)c1-n1nnnc1C(C1CC1)N1CCC2(CC1)C(=O)NCN2c1ccccc1 (stereo not given)	inconclusive [cytotoxic, single point]	–
N[C@@H](Cc1c[nH]c2ccccc12)c1nnc(SCc2c(F)cccc2Cl)o1	inconclusive [cytotoxic, single point]	–
